This is an account of results in the supplement of paper PMC4967469.

IC50 is the fitted dose that halves viability relative to control wells, and lower means more sensitive; fits outside the tested doses are given as limits. For AUC the same curve is integrated over the 256-fold range of doses and scaled to a fraction; values near 1 show little effect. Where the top dose is marked as inferred, it was calculated from the reported fits. An entry number marks a drug with two screens in the source, which often give different values.

Compound in one test: NC(=O)[C@@H](CCC(F)(F)F)N(Cc1ccc(-c2ncon2)cc1F)S(=O)(=O)c1ccc(Cl)cc1 [BMS-708163]
Nature of the test: Viability of human cancer cell lines after 72 h of drug (GDSC screen). The settings on record: screen: GDSC drug entry 205; top dose inferred. On the procedure:
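Human cancer cell lines in 384-well plates, medium with 10% serum, drug for 72 h over a 256-fold dose range (nine 2-fold or five 4-fold steps up to the top dose). Adherent lines were fixed and stained with the nucleic acid dye Syto60, suspension lines read with resazurin; signal relative to control wells, capped at 0 and 100%. One two-parameter sigmoid per drug and line, fitted in a mixed model over all curves with the slope shared within a line.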
As to “BV-173 (chronic myeloid leukaemia, suspension, top dose 10.24 µM)”, the AUC was determined as 0.989 and the IC50 is > 10.2 µM.
The matching figures for “Becker (glioma, adherent, top dose 10.24 µM)”: 0.982 and > 10.2 µM.
The corresponding values for “BxPC-3 (pancreas, adherent, top dose 10.24 µM)” are 0.984 and > 10.2 µM.
With “C2BBe1 (large intestine, adherent, top dose 10.24 µM)”, the AUC was found to be 0.961 and the IC50 is > 10.2 µM.
Take “C3A (liver, adherent, top dose 10.24 µM)”: the AUC came out at 0.987 and the half-maximal inhibitory concentration (IC50) is > 10.2 µM.
On to “C32 (melanoma, adherent, top dose 10.24 µM)”, for which the AUC was determined as 0.987 and the concentration for half-maximal inhibition (IC50) was > 10.2 µM.
“C-4-I (cervix, adherent, top dose 10.24 µM)”: the AUC amounted to 0.984 and the IC50 was > 10.2 µM.
The matching figures for “C-33-A (cervix, adherent, top dose 10.24 µM)”: 0.984 and > 10.2 µM.
Take “CA46 (Burkitt lymphoma, suspension, top dose 10.24 µM)”: the AUC was 0.983 and the IC50 is > 10.2 µM.
The matching figures for “CADO-ES1 (Ewing sarcoma, suspension, top dose 10.24 µM)”: 0.98 and > 10.2 µM.
In the case of “CAKI-1 (kidney, adherent, top dose 10.24 µM)”, the AUC came to 0.966 and the IC50 is > 10.2 µM.
The corresponding values for “CAL-12T (non-small cell lung carcinoma, adherent, top dose 10.24 µM)” are 0.983 and > 10.2 µM.
The matching figures for “CAL-27 (head and neck, adherent, top dose 10.24 µM)”: 0.982 and > 10.2 µM.
For “CAL-29 (bladder, adherent, top dose 10.24 µM)”, the AUC was 0.984 and the IC50 was > 10.2 µM.
The corresponding values for “CAL-33 (head and neck, adherent, top dose 10.24 µM)” are 0.986 and > 10.2 µM.
The corresponding values for “CAL-39 (cervix, adherent, top dose 10.24 µM)” are 0.986 and > 10.2 µM.
For the cell line “CAL-51 (breast, adherent, top dose 10.24 µM)”, the AUC was 0.99 and the 50% inhibitory concentration (IC50) is > 10.2 µM.
The corresponding values for “CAL-54 (kidney, adherent, top dose 10.24 µM)” are 0.985 and > 10.2 µM.
Turning to “CAL-62 (thyroid, adherent, top dose 10.24 µM)”, the AUC was 0.988 and the 50% inhibitory concentration (IC50) is > 10.2 µM.
Regarding “CAL-72 (osteosarcoma, adherent, top dose 10.24 µM)”, the AUC came to 0.984 and the half-maximal inhibitory concentration (IC50) was > 10.2 µM.
As for “CAL-78 (chondrosarcoma, adherent, top dose 10.24 µM)”, the AUC was determined as 0.986 and the IC50 was > 10.2 µM.
Consider “CAL-85-1 (breast, adherent, top dose 10.24 µM)”, for which the AUC was 0.98 and the 50% inhibitory concentration (IC50) is > 10.2 µM.
The corresponding values for “CAL-120 (breast, adherent, top dose 10.24 µM)” are 0.94 and > 10.2 µM.
The corresponding values for “CAL-148 (breast, suspension, top dose 10.24 µM)” are 0.989 and > 10.2 µM.
Take “CAMA-1 (breast, adherent, top dose 10.24 µM)”: the AUC was 0.984 and the concentration for half-maximal inhibition (IC50) was > 10.2 µM.
The matching figures for “CAPAN-1 (pancreas, adherent, top dose 10.24 µM)”: 0.987 and > 10.2 µM.
Take “CAS-1 (glioma, adherent, top dose 10.24 µM)”: the AUC worked out at 0.956 and the IC50 is > 10.2 µM.
The corresponding values for “CCF-STTG1 (glioma, adherent, top dose 10.24 µM)” are 0.988 and > 10.2 µM.
For the cell line “CCK-81 (large intestine, adherent, top dose 2.56 µM)”, the AUC was 0.987 and the concentration for half-maximal inhibition (IC50) was > 2.56 µM.
On to “CCRF-CEM (lymphoblastic leukaemia, suspension, top dose 10.24 µM)”, for which the AUC was 0.911 and the IC50 is > 10.2 µM.
The matching figures for “CESS (acute myeloid leukaemia, suspension, top dose 10.24 µM)”: 0.975 and > 10.2 µM.
As for “CFPAC-1 (pancreas, adherent, top dose 10.24 µM)”, the AUC came out at 0.984 and the IC50 is > 10.2 µM.
Regarding “CGTH-W-1 (thyroid, adherent, top dose 10.24 µM)”, the AUC was found to be 0.975 and the 50% inhibitory concentration (IC50) was > 10.2 µM.
The matching figures for “CHL-1 (melanoma, adherent, top dose 10.24 µM)”: 0.986 and > 10.2 µM.
The matching figures for “CHP-126 (neuroblastoma, suspension, top dose 10.24 µM)”: 0.966 and > 10.2 µM.
The matching figures for “CHP-134 (neuroblastoma, suspension, top dose 10.24 µM)”: 0.977 and > 10.2 µM.
As to “CHP-212 (neuroblastoma, adherent, top dose 10.24 µM)”, the AUC came to 0.979 and the IC50 is > 10.2 µM.
As to “CHSA0011 (chondrosarcoma, adherent, top dose 10.24 µM)”, the AUC came out at 0.976 and the half-maximal inhibitory concentration (IC50) is > 10.2 µM.
The matching figures for “CHSA0108 (chondrosarcoma, adherent, top dose 10.24 µM)”: 0.975 and > 10.2 µM.
The matching figures for “CHSA8926 (chondrosarcoma, adherent, top dose 10.24 µM)”: 0.972 and > 10.2 µM.
The corresponding values for “CL-11 (large intestine, adherent, top dose 10.24 µM)” are 0.987 and > 10.2 µM.
For the cell line “CMK (acute myeloid leukaemia, suspension, top dose 10.24 µM)”, the AUC is 0.913 and the IC50 is > 10.2 µM.
As to “COLO-205 (large intestine, suspension, top dose 10.24 µM)”, the AUC was 0.988 and the 50% inhibitory concentration (IC50) is > 10.2 µM.
The corresponding values for “COLO-320-HSR (large intestine, suspension, top dose 10.24 µM)” are 0.989 and > 10.2 µM.
Turning to “COLO-668 (small cell lung carcinoma, adherent, top dose 10.24 µM)”, the AUC is 0.982 and the IC50 is > 10.2 µM.
As to “COLO-678 (large intestine, semi-adherent, top dose 10.24 µM)”, the AUC was determined as 0.98 and the half-maximal inhibitory concentration (IC50) is > 10.2 µM.
On to “COLO-679 (melanoma, adherent, top dose 10.24 µM)”, for which the AUC was determined as 0.98 and the IC50 is > 10.2 µM.
The matching figures for “COLO-680N (oesophagus, adherent, top dose 10.24 µM)”: 0.986 and > 10.2 µM.
The matching figures for “COLO-684 (endometrium, suspension, top dose 10.24 µM)”: 0.98 and > 10.2 µM.
The matching figures for “COLO-783 (melanoma, adherent, top dose 10.24 µM)”: 0.99 and > 10.2 µM.
On to “COLO-792 (melanoma, adherent, top dose 10.24 µM)”, for which the AUC was found to be 0.985 and the 50% inhibitory concentration (IC50) is > 10.2 µM.
The corresponding values for “COLO-800 (melanoma, adherent, top dose 10.24 µM)” are 0.988 and > 10.2 µM.
On to “COLO-824 (breast, adherent, top dose 10.24 µM)”, for which the AUC is 0.968 and the half-inhibitory concentration (IC50) is > 10.2 µM.
The corresponding values for “COLO-829 (melanoma, adherent, top dose 10.24 µM)” are 0.973 and > 10.2 µM.
With “COR-L23 (large cell lung carcinoma, adherent, top dose 10.24 µM)”, the AUC is 0.977 and the half-maximal inhibitory concentration (IC50) is > 10.2 µM.
For “COR-L88 (small cell lung carcinoma, adherent, top dose 10.24 µM)”, the AUC was found to be 0.986 and the half-inhibitory concentration (IC50) is > 10.2 µM.
Turning to “COR-L95 (small cell lung carcinoma, adherent, top dose 10.24 µM)”, the AUC was found to be 0.979 and the IC50 was > 10.2 µM.
The matching figures for “COR-L105 (lung adenocarcinoma, adherent, top dose 10.24 µM)”: 0.969 and > 10.2 µM.
The matching figures for “COR-L279 (small cell lung carcinoma, suspension, top dose 10.24 µM)”: 0.981 and > 10.2 µM.

Staying with this test, now noted: top dose 5 µM; screen: GDSC drug entry 1072; top dose inferred.
Take BT-549 (breast, adherent): the AUC turned out to be 0.976 and the IC50 is > 5 µM.
CADO-ES1 (Ewing sarcoma, suspension): the AUC was found to be 0.986 and the half-inhibitory concentration (IC50) was > 5 µM.
As for CFPAC-1 (pancreas, adherent), the AUC was 0.926 and the 50% inhibitory concentration (IC50) was > 5 µM.
For CL-34 (large intestine, adherent), the AUC was 0.968 and the IC50 is > 5 µM.
CL-40 (large intestine, adherent): the AUC stood at 0.894 and the half-maximal inhibitory concentration (IC50) was > 5 µM.
For “CML-T1 (chronic myeloid leukaemia, suspension)”, the AUC turned out to be 0.989 and the IC50 was > 5 µM.
